From publication PMC6919601, “Identification of Plasmodium dipeptidyl aminopeptidase allosteric inhibitors by high throughput screening” (PLoS ONE, 2019)
The campaign covered roughly 110,000 compounds. About 230 (0.21%) showed an effect of 50% or more. The list shows a part of the results.

Each compound was assayed against DPAP1 (Plasmodium falciparum, UniProt Q8IIJ9) (assay: primary screen, percent inhibition; read by cleavage of a fluorogenic dipeptide substrate; higher = more effect of the substance).
Sequence of DPAP1 (Q8IIJ9 whole entry, looked up): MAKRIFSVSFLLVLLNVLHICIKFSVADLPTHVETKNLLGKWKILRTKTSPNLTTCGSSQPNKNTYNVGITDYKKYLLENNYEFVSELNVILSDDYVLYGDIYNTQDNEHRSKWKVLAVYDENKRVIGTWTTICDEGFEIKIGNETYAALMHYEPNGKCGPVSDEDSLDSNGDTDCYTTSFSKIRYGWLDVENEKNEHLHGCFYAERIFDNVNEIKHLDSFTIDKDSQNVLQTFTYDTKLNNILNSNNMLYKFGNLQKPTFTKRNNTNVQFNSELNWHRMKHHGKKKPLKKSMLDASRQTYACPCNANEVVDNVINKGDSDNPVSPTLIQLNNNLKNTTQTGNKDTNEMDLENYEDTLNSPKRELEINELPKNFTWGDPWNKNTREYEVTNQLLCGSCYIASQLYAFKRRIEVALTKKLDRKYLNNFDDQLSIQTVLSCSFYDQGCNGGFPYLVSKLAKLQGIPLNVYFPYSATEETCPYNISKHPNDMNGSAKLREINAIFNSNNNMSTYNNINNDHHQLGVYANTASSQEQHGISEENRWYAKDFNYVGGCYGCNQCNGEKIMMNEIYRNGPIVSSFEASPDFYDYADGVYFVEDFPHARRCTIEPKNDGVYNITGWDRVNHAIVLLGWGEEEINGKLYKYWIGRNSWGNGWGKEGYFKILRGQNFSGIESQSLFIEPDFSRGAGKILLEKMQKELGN
Design: species or system P. falciparum D10 trophozoite lysates; single well
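Note: 30 min substrate incubation versus DMSO and 10 µM JCP410 controls.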

| SMILES | % Inhibition @ 10 uM |
| --- | --- |
| Cc1ccc2nc(C(=O)O)cc(C(=O)O)c2c1 | 6.31% |
| CC(C)C[C@H](NC(=O)c1ccc(Br)s1)C(=O)NCC#N | -4.72% |
| CC(C)(C)NC(=O)C1CC(c2ccccc2F)=NO1 (stereo not drawn) | -0.644% |
| Cn1cc(Br)c(C(=O)Nc2ccc(C3CCCCC3)cc2)n1 | -0.216% |
| Cc1ccnc(NC(=O)c2ccc(COc3ccc(Cl)cc3)o2)c1 | 0.512% |
| Oc1nc2ccc(Br)cc2c(F)c1-c1ccccc1 | 0.895% |
| Oc1c2c(nc3c(-c4ccc(Cl)cc4)c(Cc4ccccc4)nn13)CCC2 | 13.3% |
| O=C(O)CN1C(=O)C2C3CC(C2C1=O)C1C(c2cccs2)c2sc(O)nc2SC31 (stereo not drawn) | -1.74% |
| CCC1=C(c2ccc(C)cc2)S(=O)(=O)N=C1N1CCC(C(=O)NCCCN2CCCCC2)CC1 | -2.11% |
| O=C(Cc1ccccc1)Nc1ccc2oc(-c3ccc(F)cc3)nc2c1 | -1.79% |
| CCOC(=O)c1c(CC(C)C)csc1/N=C/C1C(=O)c2ccccc2C1=O | -5.01% |
| Cc1cccc(C(=O)NC(C)c2ccccc2)c1 (stereo not drawn) | 0.467% |
| C=CCN(CC=C)C(=O)COc1ccc(Cl)cc1Cl | 2.42% |
| Cc1ccc(S(=O)(=O)N(CC(=O)N2CCN(c3ccccc3)CC2)Cc2ccccc2)cc1 | -4.13% |
| Cc1cccc(COC(=O)N[C@@H](CC(C)C)C(=O)NCC#N)c1 | -3.04% |
| O=C(O)/C=C\C(=O)Nc1cccc(Cl)c1Cl | -3.72% |
| COc1ccc(Nc2ncnc3c2oc2ccccc23)cc1 | 4.12% |
| Fc1ccc(N2CCN(Cc3ccco3)CC2)cc1 | 7.55% |
| CCn1c(SCC(=O)Nc2cc(C)on2)nc2c(c1=O)SCC2 | 2.54% |
| Cc1oc(-c2ccc(C(=O)NCCC(C)C)cc2)nc1CS(=O)c1ccccc1 (stereo not drawn) | -5.92% |
| OCC1CCCCN1CCc1ccccc1 (stereo not drawn) | -2.95% |
| CC(=O)Nc1ccc(NC(=O)c2cc([N+](=O)[O-])ccc2Cl)cc1 | 3.1% |
| CC(C)Oc1ccc(CNC(=O)Cn2sc3ccccc3c2=O)cc1 | -0.856% |
| COCCn1c(=N)c(C#N)cc2c(=O)n3cc(C)ccc3nc21 | -1.47% |
| CCCC1=NN(c2nc3ccccc3s2)C(=O)/C1=C/N(C)C | 1.01% |
| CCSc1nnc(NC(=O)c2cnc(SC)nc2C)s1 | -4.08% |
| CCOc1ccc2nc(NC(=O)c3ccccc3C)sc2c1 | -3.45% |

| SMILES | % Inhibition @ 10 uM |
| --- | --- |
| COc1ccc(CN2CCN(Cc3ccc(SC)cc3)CC2)c(OC)c1 | -2.87% |
| CC(C)CC(C(=O)NCCCOC(C)C)N1Cc2ccccc2C1=O (stereo not drawn) | 6.98% |
| O=C1CN(c2ccc(Br)cc2)C(=O)N1 | -6.08% |
| COCc1nnc(NC(=O)c2c(-c3ccccc3)noc2C)s1 | 1.91% |
| COc1ccc(Br)cc1/C=C/C(=O)O | 14.4% |
| CCN(CCN(C)C)Cc1ccccc1Br | 1.08% |
| Cc1cc(C)c(C#N)c(SCC(=O)c2ccc3c(c2)OCO3)n1 | 0.343% |
| COc1ccc2c(Cl)c(C(=O)N3CCCCC3)sc2c1 | 7.42% |
| CCN(CCN(C)C)Cc1ccc(F)c(Br)c1 | -0.292% |
| O=C1N=C(N2CCN(Cc3ccccc3)CC2)S/C1=C\c1ccccc1O | 11.1% |
| CCNC(=S)N1CCn2cccc2C1c1ccc(OC)cc1 (stereo not drawn) | 4.35% |
| CCOC(=O)C1CCN(Cc2cc(Br)cs2)CC1 | 3.25% |
| CC(CNS(=O)(=O)c1ccc(-n2cccn2)cc1)c1ccccc1 (stereo not drawn) | 1.09% |
| CC1CCN(c2c(C#N)c(Cl)nc3ccccc23)CC1 | -1.28% |
| Cc1nn(CC(=O)NCC23CC4CC(CC(C4)C2)C3)c(C)c1Cl | 1.76% |
| O=S(=O)(NCc1ccccn1)c1ccc(-c2ccc(O)nn2)s1 | -6.53% |
| COc1ccc(-c2nc(=O)c3ccccc3o2)cc1 | -8.04% |
| CCOC(=O)c1cc(-c2ccc(F)cc2)n(CC(=O)NC(C)(C)C)c1C | -3.64% |
| CC(C)C[C@H](NC(=O)N1CCN(c2ccc(C(F)(F)F)cc2[N+](=O)[O-])CC1)C(=O)NCC#N | -1.82% |
| Cc1nc2c(C(=O)NCCc3ccccc3)cnn2c(O)c1Cl | 1.27% |
| CCOCCCNC(=O)Cc1ccc(Cl)cc1 | 3.48% |
| CC(C)CN(CC(C)C)S(=O)(=O)c1csc(C(N)=O)c1 | 1.13% |
| Cc1c(NC(=O)CCN2C(=O)/C(=C\c3ccc(Cl)cc3)SC2=S)c(=O)n(-c2ccccc2)n1C | -2.15% |
| Cn1cnc2c3cccnc3ccc21 | 1.72% |
| COc1ccc(/C=C2/SC(=O)N(C(C)C)C2=O)cc1Br | 0.161% |
| COc1cccc(CNC(=O)C(C)n2sc3ccccc3c2=O)c1OC (stereo not drawn) | -6.82% |
| COc1ccc(S(=O)(=O)NCCc2nnc3ccc(SCc4ccccc4Cl)nn23)cc1 | -1.11% |

| SMILES | % Inhibition @ 10 uM |
| --- | --- |
| COc1ccc(C(=O)N/C(=C\c2ccco2)C(=O)NCCN2CCOCC2)cc1 | -0.178% |
| O=C(O)CCCCCNS(=O)(=O)c1ccc(Cl)c(C(F)(F)F)c1 | -8.38% |
| Cc1ccc(Cl)cc1-n1nnc(-c2nc(-c3ccccc3)no2)c1N | -1.59% |
| CC(CCc1ccccc1)NC(=O)C1COc2ccccc2O1 (stereo not drawn) | 5.03% |
| COc1ccc(N2CCN(C3CC(=O)N(c4ccc(F)cc4)C3=O)CC2)cc1 (stereo not drawn) | -4.91% |
| N#C/C(=C\C1=Cc2ccccc2OC1)C(=O)NC1CCCCC1 | 3.72% |
| O=C(O)c1cccc(N2C(=O)c3ccc(Oc4cccc([N+](=O)[O-])c4)cc3C2=O)c1 | 1.9% |
| CCCCN1CCc2c([nH]c3c(C)cccc23)C1=O | 1.7% |
| O=C(c1ccccn1)c1conc1C(=O)c1ccc(Br)cc1 | 3.72% |
| COc1ccccc1/C=C/CNc1ccc(F)c(F)c1 | -0.414% |
| O=C(CNS(=O)(=O)c1cccs1)N1CCN(C(=O)c2ccco2)CC1 | 4.06% |
| Cc1ccc2oc(C(=O)Nc3nc(-c4ccc(S(=O)(=O)N5CCOCC5)cc4)cs3)c(C)c2c1 | -3.18% |
| CCOC(=O)N1CCC(NC(=O)CS(=O)Cc2nc(-c3ccccc3F)oc2C)CC1 (stereo not drawn) | -1.05% |
| CC1=C(C(=O)Nc2ccccc2)C(c2ccccc2)C(C#N)=C(SCc2ccncc2)N1 (stereo not drawn) | 27.8% |
| COc1ccc(-c2cn3nc(N4CCC(C(=O)NCCc5cccs5)CC4)sc3n2)cc1 | -3.6% |
| COc1ccc(OC)c(NC(=O)C2C3CCC(C3)C2C(=O)O)c1 (stereo not drawn) | -7.02% |
| COc1ccc(CNC2CCSC2)cc1 (stereo not drawn) | -5.44% |
| O=C1CC(c2ccccc2Br)c2cc3c(cc2N1)OCCO3 (stereo not drawn) | -8.4% |
| CC1CCCC(N[C@H]2CC[C@H](O)CC2)C1 (stereo partly drawn) | -0.0953% |
| NC(=O)C1CCN(C2CCc3ccccc3C2)CC1 (stereo not drawn) | 1.57% |
| Cc1ccc(NC(=O)c2ccco2)c(NC(=O)c2ccco2)c1 | -5.71% |
| Cc1c2c(=O)n(-c3nc4ccccc4s3)[nH]c2cc(=O)n1CCc1ccccc1 | -0.834% |
| COc1ccc(C2(O)C(C)[N+](c3ccccc3)=C3SCCCN32)c(F)c1 (stereo not drawn) | -3.23% |
| Cc1nc2ncccn2c1-c1csc(Nc2ncccn2)n1 | 4.26% |
| COc1ccc(CCN2C(=O)C(NC(=O)CC(C)C)(C(F)(F)F)c3c(O)nc(O)nc32)cc1OC (stereo not drawn) | 1.91% |
| Cc1nnc(SCC(=O)NCc2ccc(S(N)(=O)=O)cc2)nc1O | 3.37% |
| CCOc1ccc(NC(=O)C2CC(C)=C(C)CC2C(=O)O)cc1 (stereo not drawn) | -1.42% |

| SMILES | % Inhibition @ 10 uM |
| --- | --- |
| C=CCNC(=O)/C(=C\c1ccccc1)NC(=O)c1ccco1 | 2.3% |
| CC(C)c1ccc(S(=O)(=O)c2nnn3c2nc(N)c2ccccc23)cc1 | -5.07% |
| Cc1ccc(-c2nnc(N3CCN(C(=O)CN4CCOCC4)CC3)c3ccccc23)cc1 | -4.62% |
| CNC(=O)CCCc1cn(Cc2ccccc2Cl)c2ccccc12 | 3.27% |
| CCCSc1nnc(NC(=O)c2nc(S(=O)(=O)Cc3ccc(C)cc3)ncc2Cl)s1 | 0.758% |
| COc1ccc(/C=c2\sc3nc(-c4ccccc4Br)nn3c2=O)cc1OC | -1.18% |
| Cc1cc(C)c2c3c(sc2n1)C(c1cccc(Cl)c1)C(C#N)=C(N)O3 (stereo not drawn) | -2.45% |
| CC(NCc1c(F)cccc1Cl)c1ccccc1 (stereo not drawn) | -4.68% |
| CCN(CC)CCCSc1nc2ccccc2s1 | 4.42% |
| Cc1ccccc1CNCC1CCC(C(=O)O)CC1 (stereo not drawn) | -1.99% |
| CCSc1nc(N)c(C#N)c(-c2ccco2)c1C#N | -6.09% |
| COc1ccc2c(CNCc3cccc(Cl)c3)c(C(=O)O)[nH]c2c1 | -2.68% |
| CCCC1CCC(C2CCC(C(=N)NO)CC2)CC1 (stereo not drawn) | -2.42% |
| O=C(Nc1ccccc1F)c1ccccc1Br | 1.91% |
| O=C(Nc1ncc(Cc2cccc(Cl)c2Cl)s1)C1CC1 | -16.5% |
| CCOC(=O)C1=C(CSc2nccn2C)NC(=O)NC1c1ccc2c(c1)OCO2 (stereo not drawn) | -4.04% |
| O=C(O)CCC(=O)Nc1ccc(Oc2ccc(Br)cc2)cc1 | 3.24% |
| CCOC(=O)N1CCC(NC2CCCCCC2)CC1 | -2.18% |
| Cc1cccc(NS(=O)(=O)c2ccc(Cl)cc2)n1 | -2.36% |
| N#CC1=C(N)SC(N)=C(C#N)C1c1ccccc1Cl | 18.7% |
| O=C(O)CCC(=O)Nc1ccc(Oc2ccc(Cl)cc2Cl)cc1 | 3.58% |
| Cc1ccc(S(=O)(=O)NC(=O)Nc2ccc(Cl)cc2C)cc1 | -1.06% |
| COc1ccc(CN2CCN(Cc3ccc(F)cc3)CC2)cc1OC | -0.69% |
| CCCCNC(=O)c1ccc(C2SCC(=O)N2Cc2ccccc2)cc1 (stereo not drawn) | 1.19% |
